# Source: the antibiotic and cytotoxicity screens of Wong et al. (2023)
# This is one part of the list.
# System: HepG2
# Assay: cytotoxicity call (relative viability < 0.9)
# Conditions: 10 µM
row,SMILES,cytotoxicity call
1,COc1ccc(NC(=O)Nc2ccc3c(c2)C(=O)N([C@H](C)CO)C[C@H](C)[C@H](CN(C)C(=O)NC2CCCCC2)OCCCC[C@@H](C)O3)cc1,inactive
2,COc1ccc(S(=O)(=O)N(C)C[C@@H]2OCCCC[C@@H](C)Oc3ccc(NC(=O)Nc4cccc5ccccc45)cc3C(=O)N([C@@H](C)CO)C[C@H]2C)cc1,inactive
3,C[C@@H]1CCCCO[C@H](CN(C)Cc2ccncc2)[C@H](C)CN([C@H](C)CO)C(=O)c2cc(NC(=O)Cc3ccccc3)ccc2O1,inactive
4,Cc1[nH]c(=O)[nH]c(=O)c1S(=O)(=O)N1CCOCC1,inactive
5,COc1ccc(S(=O)(=O)N(C)C[C@H]2OCCCC[C@H](C)Oc3ccc(NC(=O)Nc4ccc(F)cc4)cc3C(=O)N([C@H](C)CO)C[C@@H]2C)cc1,inactive
6,O=C(O)[C@@H]1CCCN1,inactive
7,Cc1noc(C)c1NC(=O)Nc1ccc2c(c1)C(=O)N([C@H](C)CO)C[C@@H](C)[C@H](CN(C)S(=O)(=O)c1ccc(F)cc1)OCCCC[C@H](C)O2,inactive
8,CC(C)(C)S(=O)N1Cc2cc(C(=O)NCc3ccc(Oc4ccccc4)cc3)nc(-c3cccc(C#CCC4CCCC4)c3)c2[C@@H]1CCO (stereo not given in full),inactive
9,CNC(=O)C[C@@H]1CC[C@@H]2[C@H](COC[C@H](O)CN2C(=O)Nc2ccc3c(c2)OCO3)O1,inactive
10,C[C@H]1CCCCO[C@@H](CN(C)C(=O)Nc2cccc3ccccc23)[C@@H](C)CN([C@@H](C)CO)C(=O)c2cc(NS(=O)(=O)c3cn(C)cn3)ccc2O1,active
11,C[C@@H]1CN([C@@H](C)CO)C(=O)Cc2cc(NC(=O)Cc3ccccc3)ccc2O[C@H]1CN(C)S(=O)(=O)c1cn(C)cn1,inactive
12,Cc1noc(C)c1NC(=O)N(C)C[C@H]1OCCCC[C@H](C)Oc2ccc(NS(=O)(=O)c3ccc(Cl)cc3)cc2C(=O)N([C@@H](C)CO)C[C@H]1C,inactive
13,O=C(CCCCCCC(=O)NO)NO,inactive
14,Cc1ccc(NC(=O)COc2ccc(S(=O)(=O)N3CCOCC3)cc2)cc1S(=O)(=O)N1CCCCCC1,inactive
15,COc1ccnc(C#N)c1,inactive
16,S=C1NCN(Cc2cccs2)CN1,inactive
17,O=C1OCC=C[C@H]2O[C@@]34C=CCN(CCN5CCOCC5)C(=O)[C@H]3N(CCCCCCO)C(=O)[C@@H]4[C@@H]12,inactive
18,C[C@H](CO)N1C[C@H](C)[C@H](CN(C)S(=O)(=O)c2cccs2)Oc2ccc(NS(=O)(=O)c3cccs3)cc2CC1=O,inactive
19,C[C@@H]1CCCCO[C@@H](CN(C)S(=O)(=O)c2ccccc2)[C@@H](C)CN([C@@H](C)CO)C(=O)c2cc(NC(=O)CCC(F)(F)F)ccc2O1,inactive
20,Cc1ccc(S(=O)(=O)Nc2ccc3c(c2)C(=O)N([C@H](C)CO)C[C@@H](C)[C@H](CN(C)Cc2ccc(Cl)c(Cl)c2)OCCCC[C@H](C)O3)cc1,active

row,SMILES,cytotoxicity call
1,O=C(Nc1ncc(SCCN2CCCC2)s1)[C@]1(c2ccc(S(=O)(=O)C3CC3)cc2)C[C@H]1C1CCCCC1,active
2,CNC[C@H]1COCCO1,inactive
3,Cc1ccc(S(=O)(=O)Nc2ccc3c(c2)CC(=O)N([C@H](C)CO)C[C@@H](C)[C@H](CN(C)Cc2ccc(Oc4ccccc4)cc2)O3)cc1,inactive
4,C[C@@H]1CN([C@H](C)CO)C(=O)c2cc(NC(=O)C3CCCCC3)ccc2O[C@@H](C)CCCCO[C@H]1CN(C)C(=O)Nc1cccc2ccccc12,inactive
5,C[C@@H]1CN([C@H](C)CO)S(=O)(=O)c2ccc(-c3cncnc3)cc2O[C@@H]1CN(C)C(=O)Cc1ccccc1,inactive
6,C[C@@H]1CCCCO[C@H](CN(C)C(=O)Nc2cccc3ccccc23)[C@@H](C)CN([C@H](C)CO)C(=O)c2cc(NC(=O)Nc3ccccc3)ccc2O1,inactive
7,C[C@@H]1CCCCO[C@H](CN(C)C(=O)NC2CCCCC2)[C@@H](C)CN([C@H](C)CO)C(=O)c2cc(NC(=O)CCCCCC(=O)Nc3ccccc3N)ccc2O1,inactive
8,COc1ccc(NC(=O)N(C)C[C@@H]2Oc3ccc(NC(=O)Nc4ccc(C(F)(F)F)cc4)cc3CC(=O)N([C@H](C)CO)C[C@H]2C)cc1,inactive
9,CC(=O)N[C@@H](CC(=O)O)C(=O)N[C@@H](CCC(=O)O)C(=O)O,inactive
10,C[C@@H]1CCCCO[C@@H](CN(C)C(=O)Nc2ccc(C(F)(F)F)cc2)[C@H](C)CN([C@H](C)CO)C(=O)c2cc(NC(=O)Nc3ccccc3)ccc2O1,inactive
11,Cc1ccc(S(=O)(=O)N(C)C[C@@H]2Oc3ncc(C#CC(C)(C)O)cc3C(=O)N([C@H](C)CO)C[C@@H]2C)cc1,inactive
12,CCN1CCN(C(=O)NC(C(=O)NC2C(=O)N3C2SC(C)(C)C3C(=O)[O-])c2ccccc2)C(=O)C1=O.[Na+] (stereo not given),inactive
13,C[C@@H](O)C#Cc1ccc2c(c1)O[C@H](CN(C)C(=O)Cc1ccccn1)[C@@H](C)CN([C@@H](C)CO)S2(=O)=O,inactive
14,C[C@H]1CN([C@@H](C)CO)S(=O)(=O)c2ccc(Br)cc2O[C@H]1CN(C)S(=O)(=O)c1ccccc1,inactive
15,C[C@@H]1CN([C@H](C)CO)C(=O)c2cc(NC(=O)Nc3ccccc3)ccc2O[C@H]1CN(C)Cc1ccc(Oc2ccccc2)cc1,active
16,C[C@H]1CN([C@@H](C)CO)C(=O)Cc2cc(NS(=O)(=O)c3ccccc3)ccc2O[C@@H]1CN(C)Cc1ccc(Cl)c(Cl)c1,active
17,COc1ccc(S(=O)(=O)N(C)C[C@H]2OCCCC[C@H](C)Oc3ccc(NS(=O)(=O)c4cn(C)cn4)cc3C(=O)N([C@@H](C)CO)C[C@@H]2C)cc1,inactive
18,CCCC[P+](CCCC)(CCCC)Cc1ccc(NC(=O)[C@@H](Cc2ccc3ccccc3c2)N=C(NC2CCCCC2)NC2CCCCC2)cc1,inactive
19,C[C@H](CO)N1C[C@H](C)[C@H](CN(C)S(C)(=O)=O)Oc2c(NS(=O)(=O)c3ccc(F)cc3)cccc2C1=O,inactive
20,CCOC(=O)[C@H]1CCCCN1,inactive
